Drawing on article PMC4858940, this text covers binding for six molecules.

The chains behind the UniProt entries cited, without tags or fusion partners.
UniProt P0AEZ3: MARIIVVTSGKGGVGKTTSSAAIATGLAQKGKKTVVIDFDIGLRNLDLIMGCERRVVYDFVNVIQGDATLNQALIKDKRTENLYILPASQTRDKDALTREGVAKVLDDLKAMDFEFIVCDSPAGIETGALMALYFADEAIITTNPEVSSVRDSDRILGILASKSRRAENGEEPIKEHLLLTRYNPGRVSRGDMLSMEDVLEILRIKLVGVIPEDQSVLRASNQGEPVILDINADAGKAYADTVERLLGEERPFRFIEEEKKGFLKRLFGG

What all share (experiment): two-hybrid; bacterial two-hybrid (CyaA T25 and T18 fusions) in E. coli DHP1; cultures spotted on LB plates with 0.5 mM IPTG and X-Gal, 30 °C, colour developed for 18 h; every protein cloned in pT18 and in pT25 for cross-examination
Assay [1] addresses MinD (bacterial two-hybrid fusion) (E. coli) (UniProt P0AEZ3).
Assay [2] has as its target MinE (bacterial two-hybrid fusion) (E. coli) (UniProt P0A734).
For assay [3], the target named is T1, MinC (bacterial two-hybrid fusion) (E. coli) (UniProt P18196).
T1 sequence: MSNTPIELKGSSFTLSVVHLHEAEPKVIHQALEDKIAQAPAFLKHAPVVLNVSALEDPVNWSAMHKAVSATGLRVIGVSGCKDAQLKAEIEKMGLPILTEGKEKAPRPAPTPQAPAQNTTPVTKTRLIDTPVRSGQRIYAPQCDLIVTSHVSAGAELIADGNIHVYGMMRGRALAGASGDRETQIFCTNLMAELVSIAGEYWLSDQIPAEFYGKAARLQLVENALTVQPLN

No constants are given. Whether binding was seen depends on the method and setting. Some results given as binding are weak or reduced against the parent protein; the word gives no strength. Where a sequence is shown, tags or fusion partners need not be part of it.

B1: Universal stress protein E (bacterial two-hybrid fusion) (protein, UniProt P0AAC0 1-316)
chain: MAMYQNMLVVIDPNQDDQPALRRAVYLHQRIGGKIKAFLPIYDFSYEMTTLLSPDERTAMRQGVISQRTAWIHEQAKYYLNAGVPIEIKVVWHNRPFEAIIQEVISGGHDLVLKMAHQHDRLEAVIFTPTDWHLLRKCPSPVWMVKDQPWPEGGKALVAVNLASEEPYHNALNEKLVKETIELAEQVNHTEVHLVGAYPVTPINIAIELPEFDPSVYNDAIRGQHLLAMKALRQKFGINENMTHVEKGLPEEVIPDLAEHLQAGIVVLGTVGRTGISAAFLGNTAEQVIDHLRCDLLVIKPDQYQTPVELDDEEDD
As to B1, the binding entry in assay [1] and in assay [2] was “binds” throughout.

B2: 6-phosphofructokinase isozyme 1 (bacterial two-hybrid fusion) (enzyme, UniProt P0A796 1-320)
chain: MIKKIGVLTSGGDAPGMNAAIRGVVRSALTEGLEVMGIYDGYLGLYEDRMVQLDRYSVSDMINRGGTFLGSARFPEFRDENIRAVAIENLKKRGIDALVVIGGDGSYMGAMRLTEMGFPCIGLPGTIDNDIKGTDYTIGFFTALSTVVEAIDRLRDTSSSHQRISVVEVMGRYCGDLTLAAAIAGGCEFVVVPEVEFSREDLVNEIKAGIAKGKKHAIVAITEHMCDVDELAHFIEKETGRETRATVLGHIQRGGSPVPYDRILASRMGAYAIDLLLAGYGGRCVGIQNEQLVHHDIIDAIENMKRPFKGDWLDCAKKLY
Regarding B2, the binding result in assay [3], in assay [1] and in assay [2] was “binds” each time.

B3: Ubiquinol oxidase subunit 2 (bacterial two-hybrid fusion) (protein, UniProt P0ABJ1 1-315)
chain: MRLRKYNKSLGWLSLFAGTVLLSGCNSALLDPKGQIGLEQRSLILTAFGLMLIVVIPAILMAVGFAWKYRASNKDAKYSPNWSHSNKVEAVVWTVPILIIIFLAVLTWKTTHALEPSKPLAHDEKPITIEVVSMDWKWFFIYPEQGIATVNEIAFPANTPVYFKVTSNSVMNSFFIPRLGSQIYAMAGMQTRLHLIANEPGTYDGISASYSGPGFSGMKFKAIATPDRAAFDQWVAKAKQSPNTMSDMAAFEKLAAPSEYNQVEYFSNVKPDLFADVINKFMAHGKSMDMTQPEGEHSAHEGMEGMDMSHAESAH
Regarding B3, the binding entry in assay [3], in assay [1] and in assay [2] was “no binding” throughout.

B4: Phosphoglycerate kinase (bacterial two-hybrid fusion) (enzyme, UniProt P0A799 1-387)
chain: MSVIKMTDLDLAGKRVFIRADLNVPVKDGKVTSDARIRASLPTIELALKQGAKVMVTSHLGRPTEGEYNEEFSLLPVVNYLKDKLSNPVRLVKDYLDGVDVAEGELVVLENVRFNKGEKKDDETLSKKYAALCDVFVMDAFGTAHRAQASTHGIGKFADVACAGPLLAAELDALGKALKEPARPMVAIVGGSKVSTKLTVLDSLSKIADQLIVGGGIANTFIAAQGHDVGKSLYEADLVDEAKRLLTTCNIPVPSDVRVATEFSETAPATLKSVNDVKADEQILDIGDASAQELAEILKNAKTILWNGPVGVFEFPNFRKGTEIVANAIADSEAFSIAGGGDTLAAIDLFGIADKISYISTGGGAFLEFVEGKVLPAVAMLEERAKK
Take B4: the binding entry in assay [3], in assay [1] and in assay [2] was “no binding” each time.

B5: Protein lysine acetyltransferase (bacterial two-hybrid fusion) (enzyme, UniProt P76594 1-886)
chain: MSQRGLEALLRPKSIAVIGASMKPNRAGYLMMRNLLAGGFNGPVLPVTPAWKAVLGVLAWPDIASLPFTPDLAVLCTNASRNLALLEELGEKGCKTCIILSAPASQHEDLRACALRHNMRLLGPNSLGLLAPWQGLNASFSPVPIKRGKLAFISQSAAVSNTILDWAQQRKMGFSYFIALGDSLDIDVDELLDYLARDSKTSAILLYLEQLSDARRFVSAARSASRNKPILVIKSGRSPAAQRLLNTTAGMDPAWDAAIQRAGLLRVQDTHELFSAVETLSHMRPLRGDRLMIISNGAAPAALALDALWSRNGKLATLSEETCQKLRDALPEHVAISNPLDLRDDASSEHYIKTLDILLHSQDFDALMVIHSPSAAAPATESAQVLIEAVKHHPRSKYVSLLTNWCGEHSSQEARRLFSEAGLPTYRTPEGTITAFMHMVEYRRNQKQLRETPALPSNLTSNTAEAHLLLQQAIAEGATSLDTHEVQPILQAYGMNTLPTWIASDSTEAVHIAEQIGYPVALKLRSPDIPHKSEVQGVMLYLRTANEVQQAANAIFDRVKMAWPQARVHGLLVQSMANRAGAQELRVVVEHDPVFGPLIMLGEGGVEWRPEDQAVVALPPLNMNLARYLVIQGIKSKKIRARSALRPLDVAGLSQLLVQVSNLIVDCPEIQRLDIHPLLASGSEFTALDVTLDISPFEGDNESRLAVRPYPHQLEEWVELKNGERCLFRPILPEDEPQLQQFISRVTKEDLYYRYFSEINEFTHEDLANMTQIDYDREMAFVAVRRIDQTEEILGVTRAISDPDNIDAEFAVLVRSDLKGLGLGRRLMEKLITYTRDHGLQRLNGITMPNNRGMVALARKLGFNVDIQLEEGIVGLTLNLAQREES
Consider B5, for which the binding entry in assay [3], in assay [1] and in assay [2] was “binds” in each case.

B6: Putative acid-amine ligase (bacterial two-hybrid fusion) (protein, UniProt P0ADT5 1-386)
chain: MERVSITERPDWREKAHEYGFNFHTMYGEPYWCEDAYYKLTLAQVEKLEEVTAELHQMCLKVVEKVIASDELMTKFRIPKHTWSFVRQSWLTHQPSLYSRLDLAWDGTGEPKLLENNADTPTSLYEAAFFQWIWLEDQLNAGNLPEGSDQFNSLQEKLIDRFVELREQYGFQLLHLTCCRDTVEDRGTIQYLQDCATEAEIATEFLYIDDIGLGEKGQFTDLQDQVISNLFKLYPWEFMLREMFSTKLEDAGVRWLEPAWKSIISNKALLPLLWEMFPNHPNLLPAYFAEDDHPQMEKYVVKPIFSREGANVSIIENGKTIEAAEGPYGEEGMIVQQFHPLPKFGDSYMLIGSWLVNDQPAGIGIREDRALITQDMSRFYPHIFVE
For B6, in assay [3], the binding result is recorded as “binds”.
